# According to PubChem BioAssay AID1963576 (National Center for Advancing Translational Sciences (NCATS), 2024):
# About 60 (0.1%) of roughly 46,000 compounds were called active. Not shown: some 3% with an inconclusive outcome. Calls come from the whole dose curve; as a rule, active = well fitted inhibition curve with a large enough effect; inconclusive = small, poorly fitted or top-dose-only effect; inactive = no such curve, though single readings can be large or run the other way. Some of the results follow.
# Assay: Primary qHTS assay for Inhibitors of ovarian cancer metastasis using an organotypic tumor microenvironment (TME) model.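 For activity change, negative = inhibition: plate controls were DMSO wells for no effect and tomatine positive control wells for full effect.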 Note: nearly all actives have a fitted effect of over 65% in size.
# Conditions: SKOV3ip1-GFP adhesion/invasion on 3D omental model, fluorescence; series mostly up to 45.8 µM; activity change, negative = inhibition: at the top concentration
# Summary of the method: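 Adhesion/invasion was scored as fixed GFP-labeled SKOV3ip1 cell counts (488/509 nm), normalized to DMSO and tomatine controls. Cancer cells in serum-free medium, with four compound doses (0.36-46 umol/L), sat 2 hr at RT then 16 hr at 37 C on a 48 hr fibroblast/mesothelial/ECM culture.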
SMILES,outcome,"activity change, negative = inhibition"
COc1ccc(N2CC3=C(C2=O)C(c2ccc(Br)cc2)NC(=O)N3C)cc1 (stereo unspecified),inactive,–
COc1cccc(-n2c(=O)c3sc4ccccc4c3n(CC(=O)Nc3ccc(F)cc3F)c2=O)c1,inactive,–
Cc1ccc(-c2nnc(Nc3ccc(O)cc3)c3ccccc23)cc1S(=O)(=O)NCc1nc2ccccc2[nH]1,–,inactive: 15.9%
COc1cccc(N2CCN(C(=O)c3c(C)oc4ncnc(N5CCCCC5)c34)CC2)c1,–,inactive: 0.652%
CCOc1ccc(S(=O)(=O)N2CCN(c3ccc(Cl)c(Cl)c3)CC2)c2ccccc12,inactive,–
O=C(CCNS(=O)(=O)c1ccc2c(c1)CCN2C(=O)C1CC1)N1CCN(c2ccccc2F)CC1,–,inactive: -2.27%
COc1ccccc1CNC(=O)CN1C(=O)CSc2ccc(S(=O)(=O)N(C)C)cc21,inactive,–
CCOc1ccc(CNC(=O)c2cnc3sc(N(CC)CC)nn3c2=O)cc1OC,–,inactive: 6.23%
O=C(Cn1c(=O)n(-c2ccccc2Cl)c(=O)c2sc3ccccc3c21)N1CCCC1,–,inactive: -4.92%
CCc1nc2cccnc2n1-c1ccc(CC(=O)Nc2ccc(C)cc2)cc1,inactive,–
CCn1nc(-c2ccccc2)c(-c2ccccc2)c(C(=O)Nc2nc(C)c(C(=O)N(C)C)s2)c1=O,inactive,–
Cc1ccc(C)c(NC(=O)CSc2ncc3c(n2)-c2ccc(Cl)cc2N(C)S3(=O)=O)c1,inactive,–
CCCn1c(CCC(=O)Nc2cc(Cl)c(OC)cc2OC)nc2cccnc21,–,inactive: 1.54%
O=C(CCSCc1ccccc1Cl)N1CCN(c2cccc(Cl)c2)CC1,–,inactive: 0.159%
COc1ccc(NC(=O)CC2C(=O)N(c3ccc(C)cc3)C(=O)N2C2CCCCC2)cc1 (stereo unspecified),inactive,–
CC(=O)OC(COc1ccccc1)Cn1cnc2cc(C)c(C)cc21 (stereo unspecified),–,inactive: 0.597%
COc1ccc(-n2ccn(Cc3ccccc3Cl)c(=O)c2=O)cc1OC,–,inactive: 7.97%
COc1cc(CNc2ccc3[nH]c(=O)[nH]c3c2)ccc1OCc1ccccc1F,–,inactive: -2.17%
CCN(C(=O)CSc1nc2ccccc2n1CC(=O)Nc1ccccc1C)c1ccccc1,–,inactive: 2.23%
Cc1ccc(NC(=O)CSc2nc3nccnc3c(=O)n2CCc2c[nH]c3ccccc23)cc1,–,inactive: -1.33%
Nc1cccc2c1CN(C1CCC(=O)NC1=O)C2=O (stereo unspecified),–,inactive: -1.27% [at 92.2 µM]
O=C1NC(=O)C(c2cnc3ccccn23)=C1c1cn2c3c(cccc13)CN(C(=O)N1CCOCC1)CC2,–,inactive: -12.1%
Cc1cc(C)cc(NC(=O)CCc2nnc3n(CC(C)C)c(=O)c4ccccc4n23)c1,inactive,–

SMILES,outcome,"activity change, negative = inhibition"
CC(C)N(Cc1ccccc1)C(=O)CN1C(=O)COc2ccc(S(=O)(=O)NC3CCCC3)cc21,–,inactive: 9.66%
CCOC(=O)c1cc2c(=O)n3ccccc3nc2n(CCCOC)c1=NC(=O)C(C)(C)Oc1ccc(Cl)cc1,–,inactive: 2.82%
CC(C)Cc1nn2c(=O)cc(COC(=O)c3ccc4c(c3)OCO4)nc2s1,inactive,–
COc1ccc(Cl)cc1NC(=O)CSc1ccc(-c2sc(C)nc2C)nn1,–,inactive: -3.72%
CCN(CC)S(=O)(=O)c1ccc(NC(=O)CCc2c(C)nc3cc(-c4ccc(Cl)cc4)nn3c2C)cc1,–,inactive: -8.02%
CN(C)c1ccc(C(CNS(=O)(=O)c2ccc(Br)cc2)N2CCCC2)cc1 (stereo unspecified),–,inactive: -10.1%
CCOc1ccc(C2CC(=O)n3nc(-c4ccc(C)cc4)nc3S2)cc1 (stereo unspecified),–,inactive: 0.082%
Cc1ccc(NC(=O)Cn2ncn3c(cc4ccccc43)c2=O)c(C)c1,inactive,–
Cc1cc2oc(C(=O)Nc3sc4c(c3C(=O)NCC3CCCO3)CCC4)cc(=O)c2cc1C (stereo unspecified),–,inactive: 2.14%
O=C(Nc1ccc2oc(-c3cccnc3)nc2c1)c1ccc(-c2ccc(Cl)cc2)o1,–,inactive: 7.8%
CCc1ccc(N2C(=O)CC(c3cc(OC)ccc3OC)C3=C2COC3=O)cc1 (stereo unspecified),–,inactive: -13%
COc1ccc(CNC(=O)CSc2nc3ccsc3c(=O)n2Cc2ccccc2Cl)cc1,–,inactive: -10.6%
CC(=O)Nc1ccc(O)cc1,–,inactive: -7.57%
COc1ccccc1CNC(=O)Cc1csc2nc(-c3ccc(Cl)cc3)cn12,–,inactive: -9.88%
CCOc1ccc(CCNC(=O)Cn2nc(CC)n3c(cc4sc(CC)cc43)c2=O)cc1OCC,–,inactive: -6.16%
CCCCCn1c(=N)c(S(=O)(=O)c2ccccc2)cc2c(=O)n3ccccc3nc21,–,inactive: 31.6%
CCOc1cc2sc(N3CCC(C(=O)Nc4ccc(C)cc4)CC3)nc2cc1Br,–,inactive: -4.91%
CC(NC(=O)c1ccc2c(c1)N(Cc1ccc(Cl)cc1)C(=O)c1ccccc1S2(=O)=O)c1ccccc1 (stereo unspecified),inactive,–
O=S(=O)(NCc1ccccc1)c1ccc(-c2cnc(C3CC3)o2)cc1,inactive,–
CCc1ccc(CSc2nc(-c3ccc(OC)cc3)nc3c2Cc2c(CO)cnc(C)c2O3)cc1,–,inactive: 3.82%
COc1ccc(CNC(=O)CN(c2ccccc2OC)S(=O)(=O)c2ccc(C)cc2)cc1,–,inactive: -19.3%
CCOC(=O)c1sc(NC(=O)c2nc3ncccn3n2)c(C(=O)OC)c1C,inactive,–
CCn1c(=O)c2cc(C(=O)NC3CCCCCC3)sc2c2ccccc21,–,inactive: -6.72%
